Test systems include SNB-19 CNS; NCI-H226 lung; HT29 colon; HOP-62 NSCLC; CAKI-1 renal; COLO 205 colon; NCI-H522 lung; SK-MEL-2 melanoma; RXF 393 renal; U251 CNS; SF-295 CNS; OVCAR-8 ovarian; HOP-92 NSCLC.
Common to all, as to test: growth of human tumour cells (NCI), 48 h

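Method: 48-hour compound exposure of cells in 96-well plates, five concentrations, linear interpolation of endpoints. GI50: concentration for 50% inhibition of growth.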 A number of entries come with more than one value. The other results are left out here. The source may hold further records. For some of these results: Values that stand side by side repeat one measurement (runs, samples, wells, individuals or studies). Brackets tell where a record comes from. The letters are not those of the source and start again with each entry.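 At the TGI there is no net growth.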 For some of these results: The tests behind the records often covered other concentration ranges, not given here; a value can be the end of its range.

For `Nc1nc2c(ncn2C2OC(CO)C(O)C2O)c(=O)[nH]1` (stereo not drawn), in the experiment on SNB-19 CNS, the GI50 was 9.44 µM [sample A, mean of 4 tests] and > 100 µM [sample B, 1 test].
In the case of `CC(C)(C)c1cnc(CSc2cnc(NC(=O)C3CCNCC3)s2)o1`, the TGI was > 100 µM [sample A, 1 test] and 1.44 µM [sample B, mean of 2 tests] with NCI-H226 lung; 891 nM [sample A, mean of 2 tests] and > 10 µM [sample B, mean of 2 tests] in the experiment with HT29 colon.
Turning to `c1ccc2[nH]c(-c3cscn3)nc2c1`, the GI50 was > 100 µM [sample A, 1 test] and 575 nM [sample B, 1 test] with HOP-62 NSCLC; > 100 µM [sample A, 1 test] and 6.76 µM [sample B, 1 test] with CAKI-1 renal.
In the case of `CC(=O)O[C@H]1C(=O)[C@@]2(C)C([C@H](OC(=O)c3ccccc3)[C@]3(O)C[C@H](OC(=O)[C@H](O)[C@@H](NC(=O)c4ccc(Cl)cc4)c4ccccc4)C(C)=C1C3(C)C)C1(OC(C)=O)CO[C@@H]1C[C@@H]2O` (stereo partly drawn), the TGI in the experiment on COLO 205 colon was 211 nM and 15.9 nM; with NCI-H522 lung, 413 nM and 15.9 nM; in the experiment with SK-MEL-2 melanoma, 115 nM and 16.7 µM; in the experiment on RXF 393 renal, 25 µM and 541 nM; in the experiment on U251 CNS it was 1.32 µM and > 100 µM; in the experiment on SF-295 CNS, 4.84 µM and 85.9 µM. For the same compound, the TGI in the experiment on OVCAR-8 ovarian was 920 nM and > 100 µM.
For the compound `CC1(O)CC2C(CC1SCc1ccccc1)C2(C)C` (stereo not drawn), the GI50 in the experiment on HOP-92 NSCLC is 23.2 µM [sample A, 1 test] and 75.4 nM [sample B, 1 test].

Values taken from PubChem BioAssay (NCI).
